The record followed here is ChEMBL document CHEMBL4888484, “Replenishing the malaria drug discovery pipeline: Screening and hit evaluation of the MMV Hit Generation Library 1 (HGL1) against asexual blood stage Plasmodium falciparum ,using a nano luciferase reporter read-out” (2022).

Molecules are shown by their SMILES. Among all 150,000 compounds or so, about 540 (0.36%) showed an effect of 50% or more. The list shows a part of the results.

The test relates to Plasmodium falciparum. Briefly: Primary screen in NF54 nanoGlo assay, in single point, at 2uM, 72h; a lower Z score goes with more inhibition. The class given is functional, Erythrocyte. The settings on record: timepoint 72 hour.
Usually % Inhibition stands for the relative decrease from the control value, in per cent. As to `CC(C)(C(=O)N[C@H]1CCN(Cc2cccnc2)C[C@@H]1O)N1CCOCC1`, the “% Inhibition” value is given as -3% and the Z score is recorded as 0.41.

`CCn1nc(-c2ccc(C(=O)N3CCC(F)(F)CC3)cc2)nc1N(C)C`: the “% Inhibition” value was -7% and the Z score is given as 0.92.

On to `CC(=O)N1CCc2cc(S(=O)(=O)N(C)Cc3ccncc3)ccc21`, for which the “% Inhibition” value is reported as 3% and the Z score is on record as -0.59.

`O=C(NCC(=O)N1CCC(c2nc3cc(F)ccc3s2)CC1)c1cccnc1`: the “% Inhibition” value is given as 10% and the Z score is reported as -1.38.

Consider `COc1cc(C#N)cc(Cl)c1OC(C)C`, for which the “% Inhibition” value was 10% and the Z score is reported as -1.38.

`CN(C)c1nc2c(c(N[C@@H]3COC4(CCCC4)C3)n1)CCNC2`: the “% Inhibition” value is given as -7% and the Z score was 0.87.

As to `Cc1cc(NC(=O)c2cccc(-n3cnnn3)c2)sn1`, the “% Inhibition” value is -7% and the Z score is on record as 0.9.

For `Cc1cccc(CN2CCC[C@@]3(CCN(Cc4ccc(C)o4)C3)C2=O)c1`, the “% Inhibition” value is on record as -9% and the Z score is given as 1.37.

As to `CCCO[C@H]1CCCN(C(=O)c2cc(N3CCCC3=O)ccc2F)CC1`, the “% Inhibition” value is listed as -15% and the Z score was determined as 1.87.

For the molecule `CC(C)(C)CCN1CCN(S(=O)(=O)C[C@H]2CCCS(=O)(=O)C2)CC1`, the “% Inhibition” value came to 36% and the Z score is given as -5.15.

Regarding `CC(C)[C@@H](CO)Nc1cc(C(N)=O)nc(N[C@H](CO)C(C)C)n1`, the “% Inhibition” value was -5% and the Z score came to 0.65.

As to `CCN(CC)C(=O)[C@@H](C)[C@@H]1CC[C@@]2(C)CC[C@H](NS(C)(=O)=O)[C@@H](C)[C@@H]2[C@H]1O`, the “% Inhibition” value was 0% and the Z score is 0.07.

With `CN(C)Cc1nc(Cc2cccnc2)nn1CCCO`, the “% Inhibition” value is given as -6% and the Z score turned out to be 0.79.

Regarding `CC(C)Cc1nsc(NCC#CCO)n1`, the “% Inhibition” value is recorded as 2% and the Z score is given as -0.23.

Take `CCNC(=O)CN(CC)C(=O)NCCc1ccccc1Br`: the “% Inhibition” value is given as -2% and the Z score was 0.3.

Turning to `C[C@@H](CN1CCCCCC1)NCCc1ccncc1`, the “% Inhibition” value turned out to be 1% and the Z score is on record as -0.1.

On to `O=C(CCn1cccn1)N1CCC[C@H](N(CCN2CCCC2)C(=O)C2CCC2)C1`, for which the “% Inhibition” value is on record as -9% and the Z score amounted to 1.14.

Consider `COCCn1nc(C)c(CNc2nc(C3CC3)ns2)c1C`, for which the “% Inhibition” value is reported as -6% and the Z score came to 0.62.

For `Cc1cc(N2CCC3(CCCN3Cc3cc(C#N)n(C)c3C)CC2)c2ccccc2n1`, the “% Inhibition” value was found to be 44% and the Z score is -7.68.

As for `CN(Cc1cnn(C)c1)C(=O)C1=NN(c2ccccc2)C(=O)CN1`, the “% Inhibition” value is on record as -3% and the Z score was determined as 0.5.

As to `COC1(CO)CCN(c2ncnc3[nH]ccc23)CC1`, the “% Inhibition” value is given as -4% and the Z score worked out at 0.69.

In the case of `COCCn1c(C)cnc1C[C@H]1CCCN(S(=O)(=O)Cc2ccccc2F)C1`, the “% Inhibition” value was 10% and the Z score is listed as -1.57.

As for `Cn1c(-c2ccccc2Cl)cn2cc(C(=O)N3CC[C@H](O)C3)nc2c1=O`, the “% Inhibition” value is recorded as -13% and the Z score amounted to 1.73.

Take `COc1ccc(N2C(=O)CN(C(=O)Cc3cscn3)CC23CCCC3)cc1`: the “% Inhibition” value is -11% and the Z score is 1.48.

With `CC#CCNC(=O)[C@@H]1CCC[C@H](C(=O)NCC#CC)C1`, the “% Inhibition” value was -15% and the Z score is recorded as 1.61.

With `C[C@H]1CCCN(Cc2nc3ccccc3o2)C1`, the “% Inhibition” value is reported as -19% and the Z score was 2.62.

On to `COc1cc(NC(=O)c2ccc3ccccc3n2)c(OC)cc1NC(=O)c1ccccc1`, for which the “% Inhibition” value amounted to 18% and the Z score was -2.21.

With `O=S(=O)(c1ccc2c(c1)OCCO2)N1CC=C(C(F)(F)F)CC1`, the “% Inhibition” value is -10% and the Z score was 0.93.

As to `Cc1c(-c2cnn(C)c2)nc(N)c(C#N)c1-c1cccc(Cl)c1`, the “% Inhibition” value was -1% and the Z score is 0.19.

In the case of `COC(=O)c1c(-c2ccccc2)c2ccccc2n1-c1ccccc1`, the “% Inhibition” value is given as -14% and the Z score stood at 1.59.

For the molecule `CCCc1nnsc1C(=O)NCc1ccnc(N2CCCC2=O)c1`, the “% Inhibition” value is -13% and the Z score turned out to be 1.97.

On to `CC1CCN(c2ccc(NC(=O)NC3CCCCC3)cc2C(=O)NC[C@H]2CCCO2)CC1`, for which the “% Inhibition” value is recorded as -5% and the Z score was 0.89.

For the molecule `COc1ccc(CCNC(=O)C2CC(c3cccc(C)c3)CN(Cc3ccccc3)C2)cc1` (centres undefined), the “% Inhibition” value is listed as -5% and the Z score is given as 0.87.

Regarding `COc1cc(F)ccc1-c1ccnc2nc(C3CCC3)nn12`, the “% Inhibition” value is listed as 7% and the Z score is -0.92.

For the molecule `Cc1cncc(CN2CCCC2CC(O)c2cnn(C)c2)c1` (centres undefined), the “% Inhibition” value is on record as -4% and the Z score was determined as 0.45.

As to `CNC(=O)[C@@H]1C[C@@H](NCc2ccccc2Cl)CN1C1Cc2ccccc2C1`, the “% Inhibition” value amounted to 16% and the Z score is recorded as -1.99.

Turning to `Cc1nnc(N(C)C[C@H]2CCN(C)C2(C)C)c2ccccc12`, the “% Inhibition” value is recorded as -4% and the Z score is reported as 0.61.

As for `C=CCN1C(=O)COc2ccc(-c3csc(NC(=O)C(c4ccccc4)c4ccccc4)n3)cc21`, the “% Inhibition” value is listed as -6% and the Z score is recorded as 1.05.

For `Cc1nc(C)c(C(=O)N[C@H](c2cccs2)C2CCOCC2)s1`, the “% Inhibition” value is listed as -16% and the Z score was 2.08.

As to `O=C(COc1ccccc1)NCc1noc(-c2ccccc2)n1`, the “% Inhibition” value was 1% and the Z score is given as -0.22.

Turning to `Cc1nn(-c2ccccc2)c(C)c1C(=O)NCc1ccco1`, the “% Inhibition” value came to 3% and the Z score is -0.55.

Consider `CCC[C@H]1CN(C(=O)CCc2cccnc2)CCN1C(=O)CCc1cccnc1`, for which the “% Inhibition” value was -7% and the Z score turned out to be 0.92.
